Data: PubChem BioAssay AID488969 (Vanderbilt High Throughput Screening Facility, 2010)
The full ranking holds about 110,000 compounds; the median of “z-score” is about -0.1, and the highest 2% start at about 2. The list shows a part of the results.

biological target: Metabotropic glutamate receptor 8 (Rattus norvegicus) (UniProt P70579); test: rat mGluR8 modulators via GIRK flux, primary screen, cell-based, thallium flux, HTS (AID 488969); details: HEK293 rat mGluR8, GIRK (G protein-gated inwardly rectifying potassium channel) thallium flux, FluoZin2; at 10 µM; stronger effect = higher value; submaximal glutamate (EC20) added with thallium
Sequence of UniProt P70579 (P70579 whole entry, looked up): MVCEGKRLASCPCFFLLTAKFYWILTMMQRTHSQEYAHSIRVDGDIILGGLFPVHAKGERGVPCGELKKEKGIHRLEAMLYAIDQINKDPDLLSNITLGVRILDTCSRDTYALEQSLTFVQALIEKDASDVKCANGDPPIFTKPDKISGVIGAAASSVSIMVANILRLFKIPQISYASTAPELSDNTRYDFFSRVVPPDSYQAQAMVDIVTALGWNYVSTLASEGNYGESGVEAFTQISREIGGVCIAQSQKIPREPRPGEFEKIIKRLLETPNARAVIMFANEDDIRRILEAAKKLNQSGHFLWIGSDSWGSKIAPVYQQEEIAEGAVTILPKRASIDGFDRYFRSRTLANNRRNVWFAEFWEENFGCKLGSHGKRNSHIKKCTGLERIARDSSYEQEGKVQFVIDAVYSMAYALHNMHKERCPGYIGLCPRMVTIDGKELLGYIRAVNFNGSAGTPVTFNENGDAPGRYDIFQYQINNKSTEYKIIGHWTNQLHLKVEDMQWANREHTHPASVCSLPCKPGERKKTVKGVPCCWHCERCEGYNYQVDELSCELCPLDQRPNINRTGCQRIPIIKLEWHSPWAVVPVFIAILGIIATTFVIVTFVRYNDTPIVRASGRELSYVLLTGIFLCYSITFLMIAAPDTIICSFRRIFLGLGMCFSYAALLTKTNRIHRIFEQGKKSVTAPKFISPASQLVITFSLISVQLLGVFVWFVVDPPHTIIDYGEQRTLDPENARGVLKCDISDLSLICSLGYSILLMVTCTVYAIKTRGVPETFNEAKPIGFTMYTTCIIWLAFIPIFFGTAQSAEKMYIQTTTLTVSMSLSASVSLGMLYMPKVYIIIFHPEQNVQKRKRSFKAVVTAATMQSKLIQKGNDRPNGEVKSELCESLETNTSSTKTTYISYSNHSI

| Compound | z-score |
| --- | --- |
| O=C1CC(c2cccc(F)c2)SC(N(c2ccccc2)c2ccccc2)=N1 (stereo not given) | -0.127 |
| Cc1cc(/C=C(\C#N)C(=O)OCC(=O)Nc2ccc(OC(F)F)cc2)c(C)n1CC(C)C | -0.0858 |
| COc1ccc(C)cc1NC(=O)c1nnn(Cc2cc(C)ccc2C)c1N | 0.562 |
| Cc1ccccc1-c1nc(CN2CCC(C(=O)NCc3ccco3)CC2)c(C)o1 | 0.0789 |
| CN(c1ccc(C(=O)N2CCOCC2)cc1)S(C)(=O)=O | -0.193 |
| CCc1ccc(S(=O)(=O)c2n[nH]n3c2nc(=O)c2ccccc23)cc1 | 0.475 |
| Cc1c2cccn2cc[n+]1C | -0.16 |
| COc1ccc(C2CC(c3cccs3)=NN2C(=O)COC(=O)c2cc3ccccc3cc2O)cc1OC (stereo not given) | 0.101 |
| CCOc1nc(-c2ccncc2)nc2ccccc12 | -0.619 |
| Cc1cc(C)cc(NS(=O)(=O)c2ccc3[nH]cc(C(=O)NCc4ccco4)c(=O)c3c2)c1 | 0.218 |
| Cc1nn(-c2ccccc2)c(C)c1NC(=O)COc1ccc2ccccc2c1 | -0.197 |
| CN(c1ccccc1)S(=O)(=O)c1cc(C(=O)N2CCN(c3ccccn3)CC2)ccc1Cl | -0.278 |
| NC(=O)C1CCN(C(=O)CSc2ccccn2)CC1 | 0.269 |
| Cc1ccc(C2N(c3ccccc3)C(=S)N3CCCN23)cc1 (stereo not given) | -0.625 |
| Cc1nc2ccc(NC(=O)c3cccc(S(=O)(=O)N4CC(C)OC(C)C4)c3)cc2s1 (stereo not given) | 0.116 |
| CCCOC(=O)C1[C@H]2C(=O)N(CCCOC)C[C@]23C=C[C@H]1O3 (stereo not given in full) | 0.152 |
| O=C(O)CCC(=O)Nc1ccc(N2CCCCC2)c(C(=O)O)c1 | 0.0405 |
| O=C(O)CN(c1ccccn1)S(=O)(=O)c1ccc(Cl)cc1 | -0.778 |
| O=c1ccc2ccc(Oc3ccc([N+](=O)[O-])cc3[N+](=O)[O-])cc2o1 | 0.372 |
| O=[N+]([O-])c1nn(-c2ccc3c(c2)OCCO3)n(O)c1=NCCCO | 0.188 |
| CC(=O)c1ccc(-n2c(SCC(=O)c3c[nH]c4ccccc34)nc3ccccc3c2=O)cc1 | 0.548 |
| CCC(C)n1c(SCc2ccc([N+](=O)[O-])cc2)nc2ccsc2c1=O (stereo not given) | 0.36 |
| COc1ccc(N(CC(=O)NN=C2CCCCCCC2)S(=O)(=O)c2ccccc2)cc1 | -0.421 |
| Cc1ccc(-c2cc(C(=O)Nc3cc(C)on3)c3ccccc3n2)c(C)c1 | -0.549 |
| Nc1ccc2oc3ccccc3c2c1 | -0.124 |
| Cc1cc(NC(=O)c2cc(-c3ccccc3)on2)no1 | 0.0825 |
| CCOC(=O)c1c(C)nc2c(c1-c1ccccc1)C(=O)CCC2 | -0.0671 |
| O=C(NC1CC1)c1cc(=O)c2ccccc2o1 | -0.109 |
| CCCCc1c(O)nc(SCC(=O)N2CCOCC2)n(-c2ccccc2C)c1=O | -0.925 |
| CC1=C(C)[N+](=O)C2CCCCC2N1[O-] (stereo not given) | -0.196 |
